# The list shows a part of the results.
# Columns and labels:
# Experiment in all cases: glycan array binding signal (z-score within array); higher = stronger binding
# Settings in all cases: glycan notation: IUPAC condensed, linker removed
# [1] = biological target: Man(a1-2)Man(a1-3)[Man(a1-2)Man(a1-6)]Man(a1-6)[Man(a1-2)Man(a1-2)Man(a1-3)]Man
# How it was run: (§1)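 The binding signal is a Z-score computed within each array and averaged over linkers. Arrays of the same protein sequence at different concentrations or buffers were also averaged together. Data originate from 3228 arrays in the Consortium for Functional Glycomics database, kept only where the protein sequence was available.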
# [2] = biological target: Man(a1-2)Man(a1-3)[Man(a1-2)Man(a1-6)]Man(a1-6)[Man(a1-2)Man(a1-2)Man(a1-3)]Man(b1-4)GlcNAc(b1-4)GlcNAc
# How it was run: as §1
# [3] = biological target: Man(a1-2)Man(a1-3)[Man(a1-6)]Man(a1-6)[Man(a1-2)Man(a1-3)]Man(b1-4)GlcNAc(b1-4)GlcNAc
# How it was run: as §1
# [4] = biological target: Man(a1-2)Man(a1-6)[Man(a1-3)]Man(a1-6)[Man(a1-2)Man(a1-2)Man(a1-3)]Man
# How it was run: as §1
# [5] = biological target: Man(a1-2)Man(a1-6)[Man(a1-3)]Man(a1-6)[Man(a1-2)Man(a1-2)Man(a1-3)]Man(b1-4)GlcNAc(b1-4)GlcNAc
# How it was run: as §1
# [6] = biological target: Man(a1-3)[Man(a1-6)]Man
# How it was run: as §1
# [7] = biological target: Man(a1-3)[Man(a1-6)]Man(a1-6)[Man(a1-2)Man(a1-3)]Man(b1-4)GlcNAc(b1-4)GlcNAc
# How it was run: as §1
# [8] = biological target: Man(a1-3)[Man(a1-6)]Man(a1-6)[Man(a1-3)]Man
# How it was run: as §1
# [9] = biological target: Man(a1-3)[Man(a1-6)]Man(a1-6)[Man(a1-3)]Man(b1-4)GlcNAc(b1-4)GlcNAc
# How it was run: as §1
# [10] = biological target: Man(a1-3)[Man(a1-6)]Man(b1-4)GlcNAc(b1-4)GlcNAc
# How it was run: as §1
# [11] = biological target: Man(a1-3)[Man(a1-6)]Man(b1-4)GlcNAc(b1-4)[Fuc(a1-6)]GlcNAc
# How it was run: as §1
# [12] = biological target: Man(a1-6)Man
# How it was run: as §1
# [13] = biological target: Man(b1-4)GlcNAc
# How it was run: as §1
# [14] = biological target: MurNAc(b1-4)GlcNAc
# How it was run: as §1
# [15] = biological target: Neu5Ac(a2-3)Gal
# How it was run: as §1
# [16] = biological target: Neu5Ac(a2-3)Gal(b1-3)GalNAc
# How it was run: as §1
# [17] = biological target: Neu5Ac(a2-3)Gal(b1-3)GalNAc(b1-3)Gal(a1-4)Gal(b1-4)Glc
# How it was run: as §1
# [18] = biological target: Neu5Ac(a2-3)Gal(b1-3)GalNAc(b1-4)[Neu5Ac(a2-3)]Gal(b1-4)Glc
# How it was run: as §1
# [19] = biological target: Neu5Ac(a2-3)Gal(b1-3)GalNAc(b1-4)[Neu5Ac(a2-8)Neu5Ac(a2-3)]Gal(b1-4)Glc
# How it was run: as §1
# [20] = biological target: Neu5Ac(a2-3)Gal(b1-3)GalNAc6S
# How it was run: as §1
# [21] = biological target: Neu5Ac(a2-3)Gal(b1-3)GlcNAc
# How it was run: as §1
# [22] = biological target: Neu5Ac(a2-3)Gal(b1-3)GlcNAc(b1-2)Man
# How it was run: as §1
# [23] = biological target: Neu5Ac(a2-3)Gal(b1-3)GlcNAc(b1-2)Man(a1-3)[GlcNAc(b1-4)][Neu5Ac(a2-3)Gal(b1-3)GlcNAc(b1-2)Man(a1-6)]Man(b1-4)GlcNAc(b1-4)GlcNAc
# How it was run: as §1
# [24] = biological target: Neu5Ac(a2-3)Gal(b1-3)GlcNAc(b1-2)Man(a1-3)[Neu5Ac(a2-3)Gal(b1-3)GlcNAc(b1-2)Man(a1-6)]Man(b1-4)GlcNAc(b1-4)GlcNAc
# How it was run: as §1
# [25] = biological target: Neu5Ac(a2-3)Gal(b1-3)GlcNAc(b1-3)Gal(b1-3)GlcNAc
# How it was run: as §1
# [26] = biological target: Neu5Ac(a2-3)Gal(b1-3)GlcNAc(b1-3)Gal(b1-4)GlcNAc
# How it was run: as §1
# [27] = biological target: Neu5Ac(a2-3)Gal(b1-3)GlcNAc(b1-3)GalNAc
# How it was run: as §1
# [28] = biological target: Neu5Ac(a2-3)Gal(b1-3)GlcNAc(b1-4)Gal(b1-4)Glc
# How it was run: as §1
# [29] = biological target: Neu5Ac(a2-3)Gal(b1-3)GlcNAc(b1-6)GalNAc
# How it was run: as §1
# [30] = biological target: Neu5Ac(a2-3)Gal(b1-3)GlcNAc6S
# How it was run: as §1
# [31] = biological target: Neu5Ac(a2-3)Gal(b1-3)[Fuc(a1-4)]GlcNAc
# How it was run: as §1
# [32] = biological target: Neu5Ac(a2-3)Gal(b1-3)[Fuc(a1-4)]GlcNAc(b1-3)Gal(b1-3)[Fuc(a1-4)]GlcNAc
# How it was run: as §1
# [33] = biological target: Neu5Ac(a2-3)Gal(b1-3)[Fuc(a1-4)]GlcNAc(b1-3)Gal(b1-4)[Fuc(a1-3)]GlcNAc
# How it was run: as §1
# [34] = biological target: Neu5Ac(a2-3)Gal(b1-3)[GlcNAc(b1-6)]GalNAc
# How it was run: as §1
# [35] = biological target: Neu5Ac(a2-3)Gal(b1-3)[Neu5Ac(a2-6)]GalNAc
# How it was run: as §1
# [36] = biological target: Neu5Ac(a2-3)Gal(b1-3)[Neu5Ac(a2-6)]GlcNAc(b1-3)[Fuc(a1-3)[Gal(b1-4)]GlcNAc(b1-6)]Gal(b1-4)Glc
# How it was run: as §1
# [37] = biological target: Neu5Ac(a2-3)Gal(b1-3)]Neu5Ac(a2-3)Gal(b1-4)]GlcNAc
# How it was run: as §1
# [38] = biological target: Neu5Ac(a2-3)Gal(b1-4)Glc
# How it was run: as §1
# [39] = biological target: Neu5Ac(a2-3)Gal(b1-4)GlcNAc
# How it was run: as §1
# [40] = biological target: Neu5Ac(a2-3)Gal(b1-4)GlcNAc(b1-2)Man
# How it was run: as §1
# [41] = biological target: Neu5Ac(a2-3)Gal(b1-4)GlcNAc(b1-2)Man(a1-3)[GlcNAc(b1-4)][Neu5Ac(a2-3)Gal(b1-4)GlcNAc(b1-2)Man(a1-6)]Man(b1-4)GlcNAc(b1-4)GlcNAc
# How it was run: as §1
# [42] = biological target: Neu5Ac(a2-3)Gal(b1-4)GlcNAc(b1-2)Man(a1-3)[Neu5Ac(a2-3)Gal(b1-4)GlcNAc(b1-2)Man(a1-6)]Man(b1-4)GlcNAc(b1-4)GlcNAc
# How it was run: as §1
# [43] = biological target: Neu5Ac(a2-3)Gal(b1-4)GlcNAc(b1-2)Man(a1-3)[Neu5Ac(a2-3)Gal(b1-4)GlcNAc(b1-2)Man(a1-6)]Man(b1-4)GlcNAc(b1-4)[Fuc(a1-6)]GlcNAc
# How it was run: as §1
# [44] = biological target: Neu5Ac(a2-3)Gal(b1-4)GlcNAc(b1-2)Man(a1-3)[Neu5Ac(a2-6)Gal(b1-4)GlcNAc(b1-2)Man(a1-6)]Man(b1-4)GlcNAc(b1-4)GlcNAc
# How it was run: as §1
# [45] = biological target: Neu5Ac(a2-3)Gal(b1-4)GlcNAc(b1-2)[Neu5Ac(a2-3)Gal(b1-4)GlcNAc(b1-4)]Man(a1-3)[GlcNAc(b1-4)][Neu5Ac(a2-3)Gal(b1-4)GlcNAc(b1-2)[Neu5Ac(a2-3)Gal(b1-4)GlcNAc(b1-6)]Man(a1-6)]Man(b1-4)GlcNAc(b1-4)GlcNAc
# How it was run: as §1
binder,measurement,setting,value
GNL (Galanthus nivalis) (protein) MGHHHHHHHHYGTLENGHWLMVGMSIFSKDRTVELRMQDDGKLAIYYNDHCAWQSTAQQVNNAKGAVMQGDGNFCIYDKNGKATWHTNTAAPSGDSHTFVSVQDDGNLVLYKNNGATPIWSSKSNK,glycan array binding signal (z-score),[1],-0.23
same,glycan array binding signal (z-score),[2],-0.164
same,glycan array binding signal (z-score),[3],-0.207
same,glycan array binding signal (z-score),[4],-0.213
same,glycan array binding signal (z-score),[5],-0.229
same,glycan array binding signal (z-score),[6],-0.186
same,glycan array binding signal (z-score),[7],-0.212
same,glycan array binding signal (z-score),[8],-0.247
same,glycan array binding signal (z-score),[9],-0.2
same,glycan array binding signal (z-score),[10],0.628
same,glycan array binding signal (z-score),[11],0.605
same,glycan array binding signal (z-score),[12],-0.258
same,glycan array binding signal (z-score),[13],-0.162
same,glycan array binding signal (z-score),[14],-0.228
same,glycan array binding signal (z-score),[15],-0.207
same,glycan array binding signal (z-score),[16],-0.265
same,glycan array binding signal (z-score),[17],-0.196
same,glycan array binding signal (z-score),[18],-0.286
same,glycan array binding signal (z-score),[19],-0.234
same,glycan array binding signal (z-score),[20],-0.27
same,glycan array binding signal (z-score),[21],-0.161
same,glycan array binding signal (z-score),[22],-0.208
same,glycan array binding signal (z-score),[23],-0.228
same,glycan array binding signal (z-score),[24],-0.122
same,glycan array binding signal (z-score),[25],-0.212
same,glycan array binding signal (z-score),[26],-0.257
same,glycan array binding signal (z-score),[27],-0.239
same,glycan array binding signal (z-score),[28],-0.298
same,glycan array binding signal (z-score),[29],-0.194
same,glycan array binding signal (z-score),[30],-0.203
same,glycan array binding signal (z-score),[31],-0.119
same,glycan array binding signal (z-score),[32],-0.172
same,glycan array binding signal (z-score),[33],-0.191
same,glycan array binding signal (z-score),[34],-0.179
same,glycan array binding signal (z-score),[35],-0.279
same,glycan array binding signal (z-score),[36],-0.137
same,glycan array binding signal (z-score),[37],-0.172
same,glycan array binding signal (z-score),[38],-0.158
same,glycan array binding signal (z-score),[39],-0.246
same,glycan array binding signal (z-score),[40],-0.177
same,glycan array binding signal (z-score),[41],-0.295
same,glycan array binding signal (z-score),[42],-0.162
same,glycan array binding signal (z-score),[43],-0.1
same,glycan array binding signal (z-score),[44],-0.16
same,glycan array binding signal (z-score),[45],-0.215

# — the supplement of paper PMC8728848
